Reference: patent US3974140A, “Ureidoacetamido-penicillins” (Bayer Aktiengesellschaft, priority 1970, dated 1976)
At least one read-out could not be matched to a standard name with certainty.

Columns and labels:
Assay in all cases: Surviving mice after intraperitoneal infection and subcutaneous therapy
Format in all cases: in vivo, white mice, CF1 strain
E. coli C 165 = conditions: E. coli C 165, 2 × 3000 units/mouse s.c.
Psdm. aerug. Walter = conditions: Psdm. aerug. Walter, 4 × 3000 units/mouse s.c.
Method: The experiments on animals (see Table 3) were carried out with white mice of the CF1 strain. The infection took place intraperitoneally with the particular bacterium indicated.

Klebsiella 63 = system: Klebsiella 63
Proteus vulg. 1017 = system: Proteus vulg. 1017
[1] = 30 and 90 min after infection, 1 day
[2] = Klebsiella 63, 2 × 3000 units/mouse s.c., 1 day
[3] = Klebsiella 63, 2 × 3000 units/mouse s.c., 2 days
[4] = Klebsiella 63, 2 × 3000 units/mouse s.c., 3 days
[5] = Proteus vulg., 2 × 3000 units/mouse s.c., 1 day
[6] = Proteus vulg., 2 × 3000 units/mouse s.c., 2 days
[7] = Proteus vulg., 2 × 3000 units/mouse s.c., 3 days
[8] = Proteus vulg., 2 × 3000 units/mouse s.c., 5 days

CN(C(=O)N[C@@H](C(=O)N[C@@H]1C(=O)N2[C@@H]1SC(C)(C)[C@@H]2C(=O)O)c1ccccc1)C(=O)OC1CCCCC1 [Example 67, Sodium D(-)-α-(3-cyclohexyloxycarbonyl-3-methyl-ureido)-benzylpenicillin]
Number of surviving mice (E. coli C 165; [1]): 80%
Number of surviving mice (E. coli C 165; 2 days): 50%
Number of surviving mice (E. coli C 165; 3 days): 40%
Number of surviving mice (E. coli C 165; 5 days): 40%
Number of surviving mice (Psdm. aerug. Walter; 1 day): 50%
Number of surviving mice (Klebsiella 63; [2]): 100%
Number of surviving mice (Klebsiella 63; [3]): 80%
Number of surviving mice (Klebsiella 63; [4]): 10%
Number of surviving mice (Proteus vulg. 1017; [5]): 100%
Number of surviving mice (Proteus vulg. 1017; [6]): 100%
Number of surviving mice (Proteus vulg. 1017; [7]): 100%
Number of surviving mice (Proteus vulg. 1017; [8]): 90%

Cc1ccc(C(=O)N(C)C(=O)N[C@@H](C(=O)N[C@@H]2C(=O)N3[C@@H]2SC(C)(C)[C@@H]3C(=O)O)c2ccccc2)cc1 [Example 73, Sodium D(-)-α-(3-p-methylbenzoyl-3-methyl-ureido)-benzylpenicillin]
Number of surviving mice (E. coli C 165; [1]): 70%
Number of surviving mice (E. coli C 165; 2 days): 50%
Number of surviving mice (E. coli C 165; 3 days): 40%
Number of surviving mice (E. coli C 165; 5 days): 40%
Number of surviving mice (Psdm. aerug. Walter; 1 day): 50%
Number of surviving mice (Psdm. aerug. Walter; 2 days): 30%
Number of surviving mice (Psdm. aerug. Walter; 3 days): 10%
Number of surviving mice (Klebsiella 63; [2]): 100%
Number of surviving mice (Klebsiella 63; [3]): 80%
Number of surviving mice (Klebsiella 63; [4]): 0%
Number of surviving mice (Proteus vulg. 1017; [5]): 100%
Number of surviving mice (Proteus vulg. 1017; [6]): 100%
Number of surviving mice (Proteus vulg. 1017; [7]): 100%
Number of surviving mice (Proteus vulg. 1017; [8]): 100%

CN(C(=O)N[C@@H](C(=O)N[C@@H]1C(=O)N2[C@@H]1SC(C)(C)[C@@H]2C(=O)O)c1ccccc1)C(=O)c1cccs1 [Example 75, Sodium D(-)-α-(3-thenoyl-(2)-3-methyl-ureido)-benzylpenicillin]
Number of surviving mice (E. coli C 165; [1]): 90%
Number of surviving mice (E. coli C 165; 2 days): 80%
Number of surviving mice (E. coli C 165; 3 days): 80%
Number of surviving mice (E. coli C 165; 5 days): 80%
Number of surviving mice (Klebsiella 63; [2]): 100%
Number of surviving mice (Klebsiella 63; [3]): 100%
Number of surviving mice (Klebsiella 63; [4]): 100%
Number of surviving mice (Klebsiella 63; Klebsiella 63, 2 × 3000 units/mouse s.c., 5 days): 20%
Number of surviving mice (Proteus vulg. 1017; [5]): 60%
Number of surviving mice (Proteus vulg. 1017; [6]): 10%

C=CCN(C(=O)N[C@@H](C(=O)N[C@@H]1C(=O)N2[C@@H]1SC(C)(C)[C@@H]2C(=O)O)c1ccccc1)C(=O)c1ccccc1 [Example 90, Sodium D(-)-α-(3-benzoyl-3-allyl-ureido)-benzylpenicillin]
Number of surviving mice (E. coli C 165; [1]): 100%
Number of surviving mice (E. coli C 165; 2 days): 90%
Number of surviving mice (E. coli C 165; 3 days): 90%
Number of surviving mice (E. coli C 165; 5 days): 90%
Number of surviving mice (Klebsiella 63; [2]): 90%
Number of surviving mice (Klebsiella 63; [3]): 70%
Number of surviving mice (Klebsiella 63; [4]): 0%
Number of surviving mice (Proteus vulg. 1017; [5]): 100%
Number of surviving mice (Proteus vulg. 1017; [6]): 80%
Number of surviving mice (Proteus vulg. 1017; [7]): 80%
Number of surviving mice (Proteus vulg. 1017; [8]): 80%

CN(C)C(=O)N(C)C(=O)N[C@@H](C(=O)N[C@@H]1C(=O)N2[C@@H]1SC(C)(C)[C@@H]2C(=O)O)c1ccccc1 [Example 94, Sodium D(-)-α-(3-dimethylaminocarbonyl-3-methyl-ureido)benzylpenicillin]
Number of surviving mice (E. coli C 165; [1]): 50%
Number of surviving mice (E. coli C 165; 2 days): 30%
Number of surviving mice (E. coli C 165; 3 days): 30%
Number of surviving mice (E. coli C 165; 5 days): 30%
Number of surviving mice (Klebsiella 63; [2]): 80%
Number of surviving mice (Klebsiella 63; [3]): 30%
Number of surviving mice (Proteus vulg. 1017; [5]): 100%
Number of surviving mice (Proteus vulg. 1017; [6]): 100%
Number of surviving mice (Proteus vulg. 1017; [7]): 100%
Number of surviving mice (Proteus vulg. 1017; [8]): 100%

CC1(C)S[C@@H]2[C@H](NC(=O)[C@H](NC(=O)N3CCNC3=S)c3ccccc3)C(=O)N2[C@H]1C(=O)O [Example 147 A]
Number of surviving mice (Klebsiella 63; Dose C = 150,000 units/kg, 30 and 90 min, 1st day): 100%
Number of surviving mice (Klebsiella 63; Dose C = 150,000 units/kg, 2nd day): 100%
Number of surviving mice (Klebsiella 63; Dose C = 150,000 units/kg, 3rd day): 40%
Number of surviving mice (Klebsiella 63; Dose C = 150,000 units/kg, 5th day): 10%
Number of surviving mice (Proteus vulg. 1017; Prot. vulg. 1017, Dose B = 75,000 units/kg, 30 and 90 min after infection, 1st day): 100%
Number of surviving mice (Proteus vulg. 1017; Prot. vulg. 1017, Dose B = 75,000 units/kg, 2nd day): 100%
Number of surviving mice (Proteus vulg. 1017; Prot. vulg. 1017, Dose B = 75,000 units/kg, 3rd day): 100%
Number of surviving mice (Proteus vulg. 1017; Prot. vulg. 1017, Dose B = 75,000 units/kg, 5th day): 100%
